According to paper PMC4336329 (PLoS ONE, 2015):
About 2,200 (0.71%) of roughly 310,000 compounds showed an effect of 50% or more. Effects have a minus sign here. The list shows a part of the results.

Molecular target: human ether-à-go-go-related gene (hERG) potassium channel (human, UniProt Q12809)
Experiment: primary screen, population patch clamp on CHO cells stably expressing hERG

human ether-à-go-go-related gene (hERG) potassium channel, sequence (Q12809 whole entry, looked up): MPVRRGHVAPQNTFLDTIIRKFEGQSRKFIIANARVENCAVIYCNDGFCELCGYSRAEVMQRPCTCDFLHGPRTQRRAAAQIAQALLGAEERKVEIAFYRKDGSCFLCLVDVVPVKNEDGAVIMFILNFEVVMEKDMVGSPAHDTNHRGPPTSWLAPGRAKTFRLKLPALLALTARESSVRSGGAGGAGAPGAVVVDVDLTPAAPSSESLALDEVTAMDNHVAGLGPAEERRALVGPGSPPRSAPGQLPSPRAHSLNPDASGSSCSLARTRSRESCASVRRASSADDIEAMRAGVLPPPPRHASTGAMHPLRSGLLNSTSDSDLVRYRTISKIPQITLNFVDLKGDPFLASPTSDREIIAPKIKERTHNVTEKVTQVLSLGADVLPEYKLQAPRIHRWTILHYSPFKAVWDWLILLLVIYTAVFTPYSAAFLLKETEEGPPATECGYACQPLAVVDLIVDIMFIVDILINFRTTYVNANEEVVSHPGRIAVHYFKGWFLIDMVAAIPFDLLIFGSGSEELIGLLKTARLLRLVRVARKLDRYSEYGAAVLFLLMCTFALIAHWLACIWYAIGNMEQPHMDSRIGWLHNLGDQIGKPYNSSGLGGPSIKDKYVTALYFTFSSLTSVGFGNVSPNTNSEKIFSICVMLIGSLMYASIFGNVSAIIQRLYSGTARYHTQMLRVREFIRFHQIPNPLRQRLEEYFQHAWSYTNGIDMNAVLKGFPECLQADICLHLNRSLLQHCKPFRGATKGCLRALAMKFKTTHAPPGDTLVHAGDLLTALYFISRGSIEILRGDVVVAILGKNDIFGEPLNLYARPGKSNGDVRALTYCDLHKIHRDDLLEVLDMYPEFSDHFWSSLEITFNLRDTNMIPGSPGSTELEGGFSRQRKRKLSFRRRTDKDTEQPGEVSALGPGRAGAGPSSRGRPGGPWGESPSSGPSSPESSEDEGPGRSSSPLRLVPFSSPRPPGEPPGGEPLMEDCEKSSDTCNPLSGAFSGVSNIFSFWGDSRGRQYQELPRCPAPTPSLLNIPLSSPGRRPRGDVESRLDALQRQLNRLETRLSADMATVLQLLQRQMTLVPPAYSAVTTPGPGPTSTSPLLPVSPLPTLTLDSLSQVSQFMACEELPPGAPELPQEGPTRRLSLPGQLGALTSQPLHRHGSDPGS

SMILES | hERG current change (%, negative = inhibition) at 1uM [%]
COC(=O)c1[nH]c2cccc(Cl)c2c1NC(=O)CN(C)C1CCCCC1 | 2.44
O=C(Nc1cccc(-n2cnnn2)c1)C1CCCN(Cc2cccc(C(F)(F)F)c2)C1 (stereo not drawn) | 13.9
COc1ccc(N2CC(NS(=O)(=O)c3cccs3)CC2=O)cc1OC (stereo not drawn) | 3.05
Cc1cc(Br)cc(C)c1NC(=O)c1ccccc1[N+](=O)[O-] | 16.2
COc1ccc(S(=O)(=O)c2ccccc2)cc1NS(=O)(=O)c1cccc(C(=O)O)c1 | 3.44
Cc1ccc(Cl)cc1N1CCN(C(=O)c2cc3c(=O)n(C)c4ccccc4c3n2C)CC1 | 10.2
O=[N+]([O-])c1cccc(Cl)c1NCCNc1ncc(C(F)(F)F)cc1Cl | 10.6
O=C(NCCc1ccc(Cl)cc1)c1ccc(CS(=O)Cc2ccccc2Cl)o1 (stereo not drawn) | 4.61
O=C(NC1CCCC1)c1cc(-c2ccc(F)cc2)on1 | 10.4
Cc1ccc(CC(=O)Nc2ccccc2N2CCOCC2)cc1C | -6.3
O=C(O)C1CCCCC1C(=O)Nc1cnn(Cc2ccccc2)c1 (stereo not drawn) | 3.79
Cc1cc(C2=NNC(=NC3CC3)SC2)c(C)n1Cc1ccco1 | -0.661
CC(OC(=O)CCc1nc2ccccc2c(=O)[nH]1)C(=O)c1ccc(C(C)(C)C)cc1 (stereo not drawn) | 10.3
Cn1c(SCC(=O)NNC(=O)c2ccccc2Br)nnc1C(F)(F)F | 12.7
CN(Cc1ccon1)Cc1cn(C)nc1-c1ccc(Oc2ccccc2)cc1 | 12.4
COc1ccc(OCC(=O)C2CC2)c(C#N)c1 | 5.07
COC(=O)c1sc(N2CCCCC2)c(C#N)c1N | 11.9
Cc1cccc(N2CCN(C(=O)C3CCCN(S(=O)(=O)c4cnc[nH]4)C3)CC2C)c1 (stereo not drawn) | -2.59
COc1ccccc1CNC(=O)COC(=O)c1cccnc1SCC(=O)NCc1ccccc1OC | 5.22
COCCCn1c(SCC(=O)NC2CCCC2)nnc1-c1ccco1 | 5.97
COc1ccc(CN(C)C(=O)C2CCN(S(=O)(=O)c3cccs3)CC2)cc1F | -5.69
CSc1ccccc1NC(=O)c1cc(Cl)sc1Cl | 7.18

SMILES | hERG current change (%, negative = inhibition) at 1uM [%]
CN1CCN(CC(=O)Nc2c(C(=O)c3ccccc3)oc3ccccc23)CC1 | -83.2
CCn1cc(C(=O)N(C)c2ccccc2F)c2cc(OC)c(OC)cc2c1=O | 18
Cc1nn(Cc2ccccc2)c(Cl)c1C(=O)NCCc1ccccc1 | 6.2
CCOC(=O)c1ccc(NC(=O)Cn2c(-c3nonc3N)nc3ccccc32)cc1 | 0.67
Cc1ccc(S(=O)(=O)Nc2c3ccccc3nc(=O)n2-c2ccccc2)cc1 | 18.4
Cc1ccc(F)c(N=Cc2c(O)c3ccccc3oc2=O)c1 | 13.9
CS(=O)(=O)N1c2cccc3cccc(c23)S1(=O)=O | 13.7
Cc1ccc([N+](=O)[O-])cc1S(=O)(=O)Nc1cccc(-c2ccc(N3CCOCC3)nn2)c1 | 5.19
CC(OC(=O)CCCN=C1NS(=O)(=O)c2ccccc21)C(=O)Nc1ccc(F)c(F)c1F (stereo not drawn) | 0.447
N#Cc1cn(CC(=O)N2CCc3ccccc3C2)c2ccccc12 | 11.9
Cc1c(NC2=CC(=O)CCC2)c(=O)n(-c2ccccc2)n1C | 9.41
O=C(Cn1nc(-c2ccco2)ccc1=O)Nc1cc(Cl)ccc1Cl | 9.71
COc1cc(C(=O)Nc2c(C(=O)O)[nH]c3ccc(Br)cc23)cc(OC)c1OC | 6.19
O=C(Nc1ccc(S(=O)(=O)NC2CCCCC2)cc1)c1ccc(Br)o1 | 1.61
COc1ccc(NC(=O)NCc2ccco2)cc1OC | 1.01
OC1CCCC1 | 14.5
COc1ccc(C(CNC(=O)c2cccc(S(=O)(=O)NCc3ccccc3)c2)N(C)C)cc1 (stereo not drawn) | -4.45
NC(=O)c1nsc(C(=O)N(CC(=O)NC2CCCC2)c2cnc3ccccc3c2)c1N | 4.62
CCN1C(=O)/C(=C/c2cccs2)N(C)C1=S | 6.19
O=C(/C=C/c1cccnc1)c1ccc(NC(=O)c2cccc(Br)c2)cc1 | 8.9
Cc1ccc(C(C)C)c(OCc2ccc(C(=O)N/N=C/c3ccc(C(=O)O)cc3)cc2)c1 | 3.46
O=C(Cn1cc([N+](=O)[O-])ccc1=O)NC1CCCCC1 | 8.69

SMILES | hERG current change (%, negative = inhibition) at 1uM [%]
CCOc1cc(C(=O)NC(C)C2CCCO2)cc(OCC)c1OCC (stereo not drawn) | 8.17
O=C(Nc1nccs1)[C@@H]1CCCN1C(=O)c1cccs1 | 1.24
CC(=O)c1ccc(N2CCN(C(=O)CCCn3c(=S)[nH]c4cc5c(cc4c3=O)OCO5)CC2)cc1 | 3.8
CCOc1ccc(Nc2oc(-c3ccccc3Cl)nc2C#N)cc1 | 10.3
CC(OC(=O)CN1C(=O)c2ccccc2C1=O)C(=O)NC1(C#N)CCCCC1 (stereo not drawn) | 8.34
CC(NC(=O)CN1C(=O)NC2(CCc3ccccc32)C1=O)c1ccc2c(c1)OCCO2 (stereo not drawn) | 12.9
CC1(C)CSC(=NCc2ccccc2)N1C(=O)c1cccc([N+](=O)[O-])c1 | 7.16
O=c1c2nccnc2[nH]c(=S)n1Cc1ccccc1Cl | 10.6
C/C(=N\N=C1\NC(=O)C(CC(=O)O)S1)c1ccccn1 (stereo not drawn) | 9.48
CC1CCCN(C(=O)C2COc3ccccc3O2)C1 (stereo not drawn) | 11.5
COc1cc(C(=O)O)cc(Br)c1OC1CCCC1 | 23.4
Cl.ClCC1=Nc2cccc3cccc(c23)N1 | 7.46
O=[N+]([O-])c1ccc(Nc2nc(NCCO)nc(N3CCCC3)n2)cc1 | -7.05
COc1ccc(N(C)S(=O)(=O)c2cccc(C(=O)OC(C(=O)Nc3cc(C)cc(C)c3)c3ccccc3)c2)cc1 (stereo not drawn) | 15.6
O=C(CN1CCCCC1)Nc1nc(-c2ccc(F)c(F)c2)cs1 | -11.8
O=C(Nc1nnc(S(=O)(=O)N2CCCCC2)s1)c1ccccc1Br | 12.1
COc1ccc(NC(=O)C(c2ccc(OC)cc2)N(Cc2ccco2)C(=O)CC2NC(=O)NC2=O)cc1 (stereo not drawn) | 9.67
CCN(CC(=O)Nc1c(F)cccc1F)C(=O)CCc1ccc(OC)cc1 | 20.2
CN(Cc1ccon1)C(=O)CC1C(=O)NCCN1Cc1cccc(F)c1F (stereo not drawn) | -1.6
CCOC(=O)c1sc(NC(=O)Nc2ccc(Cl)cc2)cc1C | 7.2
COc1ccc(C2C(C(=O)O)CC(=O)N2c2ccc(OC)cc2)cc1 (stereo not drawn) | 11.4
CCSc1nc(C)c(CC)c(C)c1C(N)=O | 10.4

SMILES | hERG current change (%, negative = inhibition) at 1uM [%]
Cc1ncsc1C(=O)Nc1cccc(C(F)(F)F)c1 | 9.09
O=c1[nH]c(-c2ccc(O)cc2)nc2scc(-c3cccs3)c12 | 15.9
NC(=O)NC(CC(=O)NCCc1ccc(S(N)(=O)=O)cc1)c1ccccc1Cl (stereo not drawn) | 7.63
Cc1c(NS(=O)(=O)c2ccc(NCCN3CCOCC3)c([N+](=O)[O-])c2)c(=O)n(-c2ccccc2)n1C | 12.7
Cc1cccc(C(=O)Nc2cc(=O)n(C)c(=O)n2C)c1 | 10.8
COc1cc(-c2n[nH]c(=S)n2/N=C/c2cccn2C)cc(OC)c1OC | 2.77
O=C(NCCSc1ccccc1)c1cncc(Br)c1 | 9.91
O=C(CN(Cc1ccccc1Cl)C(=O)c1csnn1)NCc1ccccc1 | -5.55
C[C@H](NC(=O)c1ccccc1)C(=O)N1CCN(c2ccccc2)CC1 | 9.73
C=C1C(=O)[C@@]23[C@H](O)C[C@@H]4C(C)(C)CC[C@H](O)[C@@]4(C)[C@@H]2CC[C@@H]1[C@H]3O | 7.44
Cc1cccc(NC(=O)Nc2cccc(C#N)c2)n1 | 9.99
CC(=O)N1CCc2cc(S(=O)(=O)NC(CC(C)C)C(=O)Nc3cc(C)ccn3)ccc21 (stereo not drawn) | 15.2
Cc1noc(C)c1C(=O)Nc1ccc(C#N)cc1 | 14.3
CCOC(=O)c1ccc(N=Nc2c(C)c(C#N)c(O)[nH]c2=O)cc1 | 14.1
O=C1c2ccccc2S(=O)(=O)N1CC1CC(c2ccccc2Cl)=NO1 (stereo not drawn) | 13.2
Cc1c(OCC(=O)NCc2ccncc2)ccc2c3c(c(=O)oc12)CCC3 | 12
O=C(CSc1nc2ccccc2o1)N1c2ccccc2Sc2ccccc21 | 1.91
COc1ccccc1C(=O)Nc1ccc(S(=O)(=O)Nc2nccs2)cc1 | 13.8
CC(NC(=O)CN(C)Cc1cccc(Cl)c1)c1ccccc1 (stereo not drawn) | 4.99
Cn1cccc1/C=N\NC(=O)C1COc2ccc(C(C)(C)C)cc2O1 (stereo not drawn) | 11.7
CC1CC(C)CN(C(=O)Cn2c(=O)n(CCCCC(=O)NCc3ccco3)c(=O)c3ccccc32)C1 (stereo not drawn) | 9.92
